# Test results from patent publication US8802826B2, “Anti-clusterin antibodies and antigen binding fragments and their use to reduce tumor volume” (Alethia Biotherapeutics Inc., priority 2009, dated 2014).
# B1: h21B12: humanized anti-clusterin IgG2 antibody, heavy chain SEQ ID NO.:19 and light chain SEQ ID NO.:20 (antibody)
# heavy: QVQLVQSGSELKKPGASVKVSCKASGYTFTNYGMHWVRQAPGQGLEWMGWINTYTGEPTYADDFKGRFVFSLDTSVSTAYLQISSLKAEDTAVYYCARDGFLYFFDYWGQGTLVTVSSASTKGPSVFPLAPCSRSTSESTAALGCLVKDYFPEPVTVSWNSGALTSGVHTFPAVLQSSGLYSLSSVVTVPSSNFGTQTYTCNVDHKPSNTKVDKTVERKCCVECPPCPAPPVAGPSVFLFPPKPKDTLMISRTPEVTCVVVDVSHEDPEVQFNWYVDGVEVHNAKTKPREEQFNSTFRVVSVLTVVHQDWLNGKEYKCKVSNKGLPAPIEKTISKTKGQPREPQVYTLPPSREEMTKNQVSLTCLVKGFYPSDIAVEWESNGQPENNYKTTPPMLDSDGSFFLYSKLTVDKSRWQQGNVFSCSVMHEALHNHYTQKSLSLSPGK
# light: DIVMTQSPDSLAVSLGERATINCKSSQSLLYSSNQKNYLAWYQQKPGQPPKLLIYWASTRESGVPDRFSGSGSGTDFTLTISSLQAEDVAVYYCQQYYIYPRTFGQGTKLEIKRTVAAPSVFIFPPSDEQLKSGTASVVCLLNNFYPREAKVQWKVDNALQSGNSQESVTEQDSKDSTYSLSSTLTLSKADYEKHKVYACEVTHQGLSSPVTKSFNRGEC
# modifications: Complete heavy chain immunoglobulin sequence for h21B12; Complete light chain immunoglobulin sequence for h21B12
# Molecular target: T1, human clusterin (recombinant monomeric clusterin) (Homo sapiens, UniProt P10909)
# T1 construct: Recombinant monomeric clusterin was immobilized on a CM3 chip with normal amine coupling method
# Assay: BIAcore kinetic analysis of antibody binding to immobilized clusterin
# Description: The purpose of these investigations is to determine the kinetics parameters of anti-clusterin antibodies. In particular, to determine whether the humanization of the 16B5 and 21B12 anti-clusterin monoclonal antibody affects the kinetics parameters of its binding to human clusterin. To this end, a kinetic analysis method was developed using the BIAcore 3000. Human clusterin was immobilized on a sensor chip. Full length antibodies or Fab fragments were injected and allowed to interact with the immobilized clusterin. This example described the exemplary antibody 16B5 but the 21B12 exemplary antibody was prepared and tested in a similar manner.
# HBST (10 mM Hepes pH 7.4, 135 mM NaCl, 3.4 mM EDTA, 0.005% Tween 20) was used as running buffer for all BIAcore experiments. Recombinant monomeric clusterin was immobilized on a CM3 chip with normal amine coupling method at a flow of 5 μl/min. Surface was activated with 35 μl of a mixture of 50 mM NHS/0.2M EDC. Clusterin in 10 mM Na-acetate pH 4.5 was injected until a desired amount was captured (below 60RU). Unreacted esters were deactivated with 35 μL1 of 1M ethanolamine hydrochloride-NaOH pH8.5. A control surface was prepared by injecting NHS/EDC and ethanolamine in the same manner.
# Kinetics analysis was conducted at a flow of 50 μl/min. Full length antibodies (mouse or humanized) or Fab were diluted in HBST. […]
# T1 sequence (P10909 23-449): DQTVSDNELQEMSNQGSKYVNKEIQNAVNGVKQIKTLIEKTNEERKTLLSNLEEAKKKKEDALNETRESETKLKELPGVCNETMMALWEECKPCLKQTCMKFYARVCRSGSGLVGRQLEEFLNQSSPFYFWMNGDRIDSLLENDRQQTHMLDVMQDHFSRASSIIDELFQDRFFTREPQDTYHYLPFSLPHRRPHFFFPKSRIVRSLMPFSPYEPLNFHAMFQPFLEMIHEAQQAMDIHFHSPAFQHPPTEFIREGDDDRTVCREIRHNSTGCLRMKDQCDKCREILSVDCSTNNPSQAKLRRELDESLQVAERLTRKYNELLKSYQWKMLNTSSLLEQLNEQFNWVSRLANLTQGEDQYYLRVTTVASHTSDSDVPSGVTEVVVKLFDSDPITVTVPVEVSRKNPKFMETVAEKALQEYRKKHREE
molecule,measurement,setting,value
B1,kinetics parameters compared with the parent mouse antibody,"full length vs full length, Fab vs Fab",similar
same,KD of the interaction with immobilized human clusterin,stated in words,low nM range
